# Experimental data reported in PubChem BioAssay AID488969 (Vanderbilt High Throughput Screening Facility, 2010).
# In all, about 110,000 compounds were measured (“z-score”: median about -0.1, highest 2% from about 2 on). The list shows a part of the results. Residues, ends and D or L forms follow the SMILES beside them. *: point of attachment. Boc = CC(C)(C)OC(=O)*
# Biological target: Metabotropic glutamate receptor 8 (Rattus norvegicus) (UniProt P70579)
# Assay: mGluR8 Gi/Go-coupled signaling modulation – cell-based, rat, thallium flux, HTS, primary screen (AID 488969)
# Conditions: HEK293 rat mGluR8, GIRK (G protein-gated inwardly rectifying potassium channel) thallium flux, FluoZin2; at 10 µM; stronger effect = higher value; submaximal glutamate (EC20) added with thallium
# Sequence of UniProt P70579 (P70579 whole entry, looked up): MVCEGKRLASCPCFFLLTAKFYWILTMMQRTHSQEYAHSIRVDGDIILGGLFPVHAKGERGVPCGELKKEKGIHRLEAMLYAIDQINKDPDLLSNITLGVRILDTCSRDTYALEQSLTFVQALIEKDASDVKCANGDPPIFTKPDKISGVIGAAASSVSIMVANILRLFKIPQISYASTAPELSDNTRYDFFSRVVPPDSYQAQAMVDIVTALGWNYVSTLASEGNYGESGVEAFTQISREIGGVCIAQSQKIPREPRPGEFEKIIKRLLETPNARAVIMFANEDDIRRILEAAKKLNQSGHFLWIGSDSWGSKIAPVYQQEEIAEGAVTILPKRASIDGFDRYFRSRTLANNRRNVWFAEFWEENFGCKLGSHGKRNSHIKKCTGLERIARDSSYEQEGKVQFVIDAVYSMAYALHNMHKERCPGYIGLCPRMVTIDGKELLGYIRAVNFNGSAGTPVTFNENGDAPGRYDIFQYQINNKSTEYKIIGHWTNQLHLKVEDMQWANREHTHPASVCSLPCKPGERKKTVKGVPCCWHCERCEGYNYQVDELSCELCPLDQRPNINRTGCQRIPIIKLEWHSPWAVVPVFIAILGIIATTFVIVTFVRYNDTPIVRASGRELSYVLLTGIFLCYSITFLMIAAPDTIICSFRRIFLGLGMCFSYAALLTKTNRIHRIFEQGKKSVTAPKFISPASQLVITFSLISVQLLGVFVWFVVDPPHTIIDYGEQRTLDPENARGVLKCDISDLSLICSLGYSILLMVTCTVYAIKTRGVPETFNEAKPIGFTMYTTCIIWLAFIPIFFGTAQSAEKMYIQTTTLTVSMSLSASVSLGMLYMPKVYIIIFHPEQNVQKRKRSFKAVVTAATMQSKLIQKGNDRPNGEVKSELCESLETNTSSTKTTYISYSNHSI
row,SMILES,z-score
1,O=C(CSc1ccc2nnc(-c3ccc(Cl)cc3)n2n1)N1CCc2ccccc21,-0.448
2,O=C(Nc1ccccc1)NC1CCCCC1,0.18
3,Cc1sc(=NC(=O)c2ccco2)n(C)c1-c1ccc(Cl)cc1,-0.385
4,Clc1ccc(-c2cnc(Oc3ccccc3)nc2)cc1,0.274
5,COc1ccc(NC(=O)/C(=C\c2cccnc2)NC(=O)c2cccs2)cc1,0.33
6,COc1cccc(CN2C(=O)C3(C(C#N)=C(N)OC4=C3C(=O)CCC4)c3ccccc32)c1 (configuration not stated),-0.725
7,Cc1cc(Nc2cccc(F)c2)n2c(n1)nc1ccccc12,0.0544
8,COC(=O)c1c(NC(=O)CC2SCC(C(=O)OC)NC2=O)sc2c1CCCC2 (configuration not stated),-0.469
9,Cc1ncc(CSc2nc3ccccc3[nH]2)c(N)n1,-0.344
10,Cc1ccc(N=C2NC(=O)/C(=C/C=C/c3ccco3)S2)cc1C,-0.0786
11,CCOC(=O)CNC(=O)CSc1nc2ncc(Br)cc2[nH]1,0.941
12,Cc1cc(NC(=O)NC2(C(F)(F)F)Oc3ccc(Cl)cc3O2)no1 (configuration not stated),0.526
13,NNc1ncnc2c1cnn2-c1ccccc1,-0.00309
14,COc1cc(C(=O)NCc2cccc3ccccc23)cc(Cl)c1OC,0.69
15,CC(C)(C)OC(=O)N1CCCC1C(=O)N1CCCC1C(=O)N1CCCC1C(=O)O (stereo not drawn) (Boc-Pro-Pro-Pro-OH; configuration not given here),0.283
16,CC(C)C(=O)Nc1sc2c(c1C#N)CCCCC2,-0.021
17,N/C(Cc1ccc([N+](=O)[O-])cc1)=N\OC(=O)c1ccc(Br)cc1,0.018
18,CCCn1nc(Oc2nc(NCC)nc(NCC)n2)ccc1=O,-0.475
19,CCC(c1nnnn1C(C)(C)CC)N(CCCO)Cc1cc2cccc(C)c2[nH]c1=O (configuration not stated),1.76
20,COc1ccc2nc(N)sc2c1,0.0701
21,O=C(CCn1c2c(c3ccccc31)CCCC2)NNC(=O)c1ccc(Cl)c([N+](=O)[O-])c1,0.0849
22,COc1ccc(Br)cc1C(=O)N/N=C/c1ccc2c(c1)n(C)c(=O)n2C,-0.132
23,COC(=O)c1ccccc1NC(NC(=O)c1ccco1)C(=O)c1ccc(C)cc1 (configuration not stated),-0.679
24,O=C(O)c1nsc(Cl)c1Cl,0.11

row,SMILES,z-score
1,O=C1c2ccccc2C(=O)N1CC1=CCS(=O)(=O)C1,0.399
2,COC(=O)c1cn(NC(=O)c2cccc(OC)c2)c(=O)c2ccccc12,-0.311
3,O=c1c2c3c(sc2nc2n1CCCS2)CCCC3,-0.23
4,CC(=O)Nc1c(C)ccc2nsnc12,0.0413
5,O=C(COc1ccc(Cl)cc1)NCc1nnc(SCC(=O)NC2CCCCC2)o1,-0.382
6,COc1cccc(CNC(=O)CCNC(=O)Cn2ccc3ccccc3c2=O)c1,-0.209
7,CC(C)OC(=O)c1ccc(N2C(=O)C3CC=CCC3C2=O)cc1 (configuration not stated),0.0622
8,COC(=O)c1c(C(=O)OC)c(-c2ccc(C)cc2)n2c1CS(=O)(=O)C2,-0.347
9,Cc1cccc(C)c1OCC(O)Cn1c2ccccc2c2ccccc21 (configuration not stated),-0.494
10,O=C(COc1ccc(Cl)cc1Cl)N(c1ccccn1)C1CCCCC1,0.023
11,CC(C)[C@H](NS(=O)(=O)c1ccc2c(c1)OCCO2)C(=O)OCC(=O)Nc1cc(Cl)ccc1Cl,-0.133
12,CCOc1cc(CN2CCCCC2)ccc1OC,0.476
13,Cc1ccc2c(c1)/C(=N/O)CCS2,-0.215
14,CCCCCOc1ccc(NS(C)(=O)=O)cc1,-0.637
15,CNC(=O)c1nc(C)n(-c2cc(Cl)cc(Cl)c2)n1,0.219
16,CC(C)(C)OC(=O)N[C@@H](Cc1ccccc1)c1nnc(SCC(=O)c2ccc(Cl)cc2)o1,-0.0785
17,CCN(CC(=O)NC)S(=O)(=O)c1ccc(Br)cc1,-0.49
18,O=C1S/C(=C/c2ccc(N3CCOCC3)o2)C(=O)N1Cc1ccc(F)cc1,-0.0996
19,Cc1ccc2oc(C(=O)Nc3c(C)n(C)n(-c4ccccc4)c3=O)c(C)c2c1,0.185
20,CCOC(=O)N1CCN(C(=O)C2CCCCC2)CC1,-0.573
21,CCC(Sc1ncccc1C(=O)OC(C)C)C(=O)NCc1ccco1 (configuration not stated),-0.404
22,COc1cc(CNC(=O)c2cccc(COc3ccc(Cl)cc3)c2)cc(OC)c1,-0.307
23,Cc1ccc(C(=O)Nc2ccc(S(=O)(=O)N3CCN(C)CC3)cc2)cc1,-0.284
24,CCN(CC)c1ccc(NC(=O)c2cc3ccccc3o2)c(C)c1,0.11

row,SMILES,z-score
1,COc1ccc(/C(N)=N/OC(=O)Cc2ccc(C)cc2)cc1,-0.305
2,CCc1ccc(NC(=O)COC(=O)C2(c3ccc(Cl)cc3)CCCC2)cc1,-0.0401
3,C/C(CC(=O)Nc1cc(Cl)ccc1Cl)=N\NC(=O)c1ccco1,0.0135
4,CCCCC(=O)NCCNc1nc2c(c(=O)n(C)c(=O)n2C)n1Cc1ccccc1,0.0277
5,NS(=O)(=O)c1ccc(NC(=S)N2CCN(c3cccc(Cl)c3)CC2)cc1,0.265
6,Cc1ccc(CN2CCN(CC(=O)N=Nc3c(O)[nH]c4ccccc34)CC2)cc1,-0.809
7,CCOC(=O)N1CCC(N2C(=O)c3cc(C(=O)NC4CCCCC4)ccc3C2O)CC1 (configuration not stated),-0.198
8,CC(=O)N(C(C)=O)c1c(N2CCOCC2)c2ccccc2oc1=O,0.0986
9,CCOC(=O)C1=C(C)N2C(=C(C#N)[C@@H]1c1ccc(C(=O)OC)cc1)SC[C@@]2(O)C(C)(C)C,-0.00119
10,O=C(CSc1ncnc2c1cnn2CCc1ccccc1)Nc1cccc(C(F)(F)F)c1,-0.203
11,COc1cc(CNC(C)(C)CO)cc(Br)c1OCc1ccc(Cl)cc1,1.1
12,Cn1nnc(C(O)CN2CCOCC2)n1 (configuration not stated),0.423
13,Cc1ccc(CC(=O)NCCCc2ccccc2)cc1,-0.276
14,COc1ccc(C(=O)Nc2ccc(S(=O)(=O)N3CCOCC3)cc2)cc1OC,0.18
15,CN(CC(=O)NCc1ccco1)S(=O)(=O)c1cccc2cccnc12,-0.183
16,CCOC(=O)Cn1c(C)c(C#N)c2ccccc21,-0.381
17,CCOc1ccc(-c2noc(=O)[nH]2)cc1,0.27
18,COc1ccc(NC(=O)CSc2nnc(C)n2Cc2ccccc2)cc1,-0.441
19,CCc1ccc(OCC(=O)N/N=C(\C)c2ccc(OC(F)F)cc2)cc1,-0.207
20,CCOC(=O)Nc1ccc(NS(=O)(=O)c2ccc(C)cc2)cc1,-0.137
21,COC(=O)CCc1nc2ccccc2[nH]c1=O,-0.153
22,CCOc1ccc(S(=O)(=O)N2CCCC2)cc1,-0.243
23,C=CCn1c(SCC(=O)Nc2ncc(Cc3ccc(Br)cc3)s2)nnc1-c1ccncc1,-0.195
24,CCCC(=O)Nc1cccc(NC(=O)c2ccc3c(c2)OCCO3)c1,-0.807
